Reference: the supplement of paper PMC9513381
Recombinant human monoclonal antibodies (heavy:light variable regions). ELISA EC50 on the named antigen, from 10 µg/ml down; IC50 / IC90 against spike pseudovirus on 293T-ACE2 cells, 48 h; lower = stronger. Calls: IC50 above 1,000 ng/ml = non-neutralizing; EC50 above 1,000 ng/ml = non-binder. The source prints 1000 for neutralization that was not reached; it is given as >1000 ng/ml. Only binders of the Wuhan-Hu-1 domain have neutralization values.

B1: B2050 (protein)
chain 1: QVQLQESGPGLVKPSETLSLTCTVSGGSISTYYWSWLRQPPGKGLEWIGYIFNSGGTNYHPSLRSRVTMSVDTSNNQFSLTLRSVTAADTAVYYCARDLGYDTSGPDAFQIWGQGTMVTVSS
chain 2: EIVLTQSPATLSLSPGERATLSCRASQSVYTYLAWYQHKPGQAPRLLIYDASTRATGIPARFSGSGSGTDFTLTISSLEPADFAVYYCQQRSNWPGTFGQGTKVEIK
B2: B2051 (protein)
chain 1: EVQLVESGGGLVQPGRSLRLSCAASGFTFDDYTMHWVRQAPGKGLEWVSGITSNGGIIGFADSVKGRFIISRDNAKNSLYLQMNSLRAEDTAFYYCAKDMAGVVLLGVEENYGMDVWGQGTTVTVSS
chain 2: SYELTQPPSVSGAPGKTARITCGGNNIGSKSVRWYQQKPGQAPVLVIYYDSDRPSGIPERFSGSNSGNTATLTIGRVEAGDEADYYCQVWDSSSDHVVFGGGTKLTVL
B3: B2131 (protein)
chain 1: EVQLVETGGGLIQPGGSLRLSCAVSEFIVSSNYMSWLRQAPGKGLEWVSVIYSGGSTFYADSVKGRFIISRDNSKNTLYLQMNSLRPEDTAIYYCARDWGEFYFDHWGQGTLVTVSS
chain 2: EIVLTQSPGTLSLSPGERATLSCRASESVGGSYLAWYQQKPGQAPRLLIYDASNRATGIPDRFSGSGSGTDFSLTISRLEPVDFAIYYCQQYHSSPRTFGQGTKLEIK
B4: B2127 (protein)
chain 1: EVQLVESGGGLVRPGGSLRLSCVASGFSFSSYDMHWVRQSAEKGLEWVSTIGTSGDTYYADSVKGRFTISRQNDKNSLYLQMNGLTAGDTAVYYCTRGSPAVTTVFDYWGQGTLVTVSS
chain 2: DIQMTQSPVSLSASIGDRVTITCRASQSVSRYLNWYQVKPGKAPKLLIYGASNLQSGVSSRFSGSGSGTDFTLTISTLQPEDFATYYCQQSYVNPGVTFGPGTKLDIK
B5: B2136 (protein)
chain 1: VQLVESGGGVVQPGRSLRLSCAASGFTFSVYGMHWVRQAPGSGLEWVAVISFDGNKKYYADSVKGRFTISRDNPKNTLYLQMNSLRPNDTAVYYCAKDGMATSDHLDYWGLGALVTVSS
chain 2: DIQMTQSPSSLSTSVGDRVTITCRASQSITNYLNWYQQKPGKAPKLLIYAASTLRSGVPSRFSGSGSGTDFTLTISSLQPEDFATYYCQQSYSTPGTFGQGTKVEIK
B6: B1001 (protein)
chain 1: QVQLVQSGAEVKKPGSSVKVSCKASGGTFSNYAISWVRQAPGQGLEWMGGIIPMFAIANYAQKFQGRVTISADKSTSTAHMELSSLSSEDTAVYYCASLGNGITIVRGAPITDHHFAFWGQGTLVTVSS
chain 2: QSALTQPASVSGSPGQSITISCTGTSSDVGNYNLVSWYQHHPGKAPKLMIYEVSKRPSGVSNRFSGSKSGNTASLTISGLQAEDEADYFCCSFAASSTGHWVFGGGTKLAV
B7: B1002 (protein)
chain 1: QVQLVQSGAEVKKPGSSVKVTCRASGGTFSNLAISWVRQAPGQGLEWMGSIIPMFTISNYAQKLKGRVTITADKSTSTAYMELSSLRSGDTAVYFCASLGSNITVVRGAPITDHHFHYWGQGTLVTVSS
chain 2: QSALTQPASVSGSPGQSVTISCTGTSSDVGTYNLVSWYQQHPGKAPKLMIYEVSKRPSGVSNRFSGSKSGNTASLTISGLQAEDEADYYCCSYAASSTTHWVFGGGTKLAV
B8: B2138 (protein)
chain 1: QVQLVQSGAEVKKPGSSVRVSCKASGGTFINFAVSWVRQAPGEGLEYMGGLIPILRTSHHAQKFQGRLTITADESASTAYMELSSLKSEDTAVYYCATGVRYCGGGGCYSAYFQQWGQGTLVTVSS
chain 2: EIVLTQSPGTLSLSPGERATFSCRASQSVSSSHLAWYQQKPGQAPRLLIYGTSSRATGIPDRFSGSGSGTDFTLTISRLEREDFAVYYCHHYGSSTGTFGQGTKVEIK
B9: B2129 (protein)
chain 1: EVQLVESGGGLVQPGGSLRLSCAASGFTFSSDDMHWVRQVKGEGLEWVSGIGTSGDTYYRGAVKGRFTISREDAKNSVYLQMNSLRAGDTAVYYCARGGWDGRNYYFDYWGQGVLVTVSS
chain 2: DIQLTQSPSSLSASVGDRVTITCRASQIINKFLNWYQQRPGKAPKLLIYGASTLHSGVPSRFSGSGSGTDFTLTISSLQPEDFATYYCQQSYSSPPWTFGPGTKVEIK
B10: B2130 (protein)
chain 1: QVQLVQSGAEVKKPGASVKVSCKASGYNFPAYYIHWVRQAPGQGLEWMGWINPNSGDTNSAQRFQGRVSLTRNTSITTAYMELTGLRSYDTAVYFCVRDRRTAPTPTRAWFDVWGQGTLVTVSS
chain 2: QAVVTQEPSLTVSPGGTVTLTCGSSTGAVTSGHYPYWIQQKPGQAPRTLIYDTGNKHSWTPARFSGSLLGGKAALTLSGAQPEDEAEYYCLLSYSGVLYVFGTGTKVTVL
B11: B2011 (protein)
chain 1: QLQLQESGPRLVKPSETLSLTCTVSGGPTISSSNYWGWIRQPPGKGLEWIGSVYYSGDTSYNPALQSRVTISVDTSKNQFSMKLTSVTAADTAVYYCAKLFCGGHCPLEYWGQGTLVTVSS
chain 2: DIQMTQSPSTLSASVGDRVTITCRASQSISTWLAWYQQKPGRAPKLLIYDASNLESGVPSRFSGSGSGTEFTLTINSLQADDFATYHCHQYSSSSQTFGQGTKLEIK
B12: B2128 (protein)
chain 1: EVQLVESGGGLAKPGGSLRLSCAASGFTFRNAWMSWVRQAPGKGLEWVGRMKTKTHGGTTDYAAPVKGRFTISRDDSQNTLYLQINSLKTEDTAVYFCTATLKSSWVQEWSRDHYFGMDLWGRGTTVTVSS
chain 2: DIVMTQSPLSLPVTPGEPASISCRSSQSLLASNGYNYLDWYLQKPGQSPQLLIYFGFNRASGVPGRFSGSGSGTDFTLKISRVEAEDVGVYYCMQALQTPWTFGQGTQVEIK
B13: B2137 (protein)
chain 1: QVQLQESGPGLVKPSETLSLTCSVSGGSITSGGDYWSWIRQRPGKGLEWIGYIDYSGSTYYNPSITNRVSISLDTSKNEFYLSLTSVTAADTAVFYCARGGGGYSYEDYWYFGLWGRGTLVTVSS
chain 2: QSVLTQPPSASARLGASVKLTCTLSSDHNNYAVAWHQQQPGKGPRCLMKVYSNGSHIKGDGFPDRFSGSSSGAERYLTISNLQSEDEADYYCQTWGNVFGAGTKLTVL
B14: B1003 (protein)
chain 1: QVQLQESGPGLLKPSETLSLTCSVSGGSLSSANFRWNWIRQPPGKGLEWIGNFIYSVSTNYNPSLKSRLTISMDTSKNQFSLKLTSVTAADTAVYFCARDTRYYDRSGSVTSDGMDVWGQGTTVTVSS
chain 2: DIQMTQSPSTLSASVGDRVTITCRASQSISNWLAWYQQKPGQAPRLLIYEASTLERGVPSRFSGSGSGTEFTLTISRLQPDDFATYYCQQCGGDSVTFGQGTKLEIK

Columns and labels:
[1] = biological target: SARS-CoV-2 Wuhan-Hu-1 spike pseudovirus; experiment: pseudovirus neutralization IC50; higher = weaker neutralization
Method: (§1)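 Single-round luciferase reporter pseudovirus mixed with antibody dilutions and put on 293T-ACE2 cells for 48 h; signal relative to no-antibody wells, four-parameter fit.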

[2] = biological target: SARS-CoV-2 Wuhan-Hu-1 spike pseudovirus; experiment: pseudovirus neutralization IC90; higher = weaker neutralization
Method: as §1

[3] = biological target: SARS-CoV-2 Delta (B.1.617.2) spike RBD; experiment: ELISA binding EC50; higher = weaker binding; ELISA of recombinant human antibody on coated antigen, from 10 µg/ml in fourfold dilutions; four-parameter fit.
[4] = biological target: SARS-CoV-2 Omicron BA.1 spike protein; experiment: as above
[5] = biological target: SARS-CoV-2 Wuhan-Hu-1 spike receptor-binding domain; experiment: as above

| Binder | pseudovirus neutralization IC50 [1] [µg/mL] | pseudovirus neutralization IC90 [2] [µg/mL] | ELISA binding EC50 [3] [µg/mL] | ELISA binding EC50 [4] [µg/mL] | ELISA binding EC50 [5] [µg/mL] |
| --- | --- | --- | --- | --- | --- |
| B1 | > 1 | > 1 | 0.00714 | 0.0191 | 0.00265 |
| B2 | 0.0212 | 0.205 | 0.011 | 0.00616 | 0.00105 |
| B3 | 0.00749 | 0.0647 | 0.0169 | 0.633 | 0.00322 |
| B4 | > 1 | > 1 | 0.00625 | 0.0196 | 0.00205 |
| B5 | 0.0101 | 0.104 | > 1 | 0.00714 | 0.00232 |
| B6 | 0.00161 | 0.0108 | > 1 | > 1 | 0.00147 |
| B7 | 0.0142 | 0.0686 | 0.0327 | > 1 | 0.00614 |
| B8 | 0.0048 | 0.0191 | 0.00793 | 0.213 | 0.00281 |
| B9 | > 1 | > 1 | 0.0226 | 0.06 | 0.00386 |
| B10 | 0.819 | > 1 | > 1 | > 1 | 0.00393 |
| B11 | > 1 | > 1 | 0.0277 | 0.00965 | 0.00313 |
| B12 | 0.00609 | 0.029 | 0.00365 | > 1 | 0.0028 |
| B13 | > 1 | > 1 | > 1 | > 1 | 0.00832 |
| B14 | 0.0239 | 0.424 | 0.0101 | 0.0069 | 0.0027 |
